From the supplement of paper PMC12645437, “Orthogonal IMiD-Degron Pairs Induce Selective Protein Degradation in Cells” (ACS Chemical Biology, 2025)
Some of the results follow.

What follows are sequences tested against no compound (DMSO) (assay: log2 fold change of degron read counts, EGFP-low vs EGFP+ sorted cells; higher = lower degron-EGFP level without compound (poor expression or instability)). Details: compound: DMSO control; 18 h.
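Also: jurkat cells carrying a lentiviral library of mutant zinc finger degrons fused to EGFP plus mCherry, mCherry+ cells FACS sorted, degron abundance counted by next-generation sequencing.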

Row | Sequence | log2 fold change of degron read counts
1 | FTCSVCGHSFTQKGNLLRHIKL | -1.25
2 | FVCNICGAKFTQKGNLLRHIKL | -0.488
3 | FVCDVCGAAFTQKGNLLRHIKL | -1.78
4 | FCCPICGHMFTQKGNLLRHIKL | 0.51
5 | FKCNICGAQFTQKGNLLRHIKL | -0.747
6 | FICPVCGARFTQKGNLLRHIKL | 0.177
7 | FNCEVCGAWFTQKGNLLRHIKL | -0.922
8 | FICNICGARFTQKGNLLRHIKL | -0.899
9 | FVCNQCGADFTQKGNLLRHIKL | -2.91
10 | FDCSVCGHSFTQKGNLLRHIKL | -0.957
11 | FECNVCGAIFTQKGNLLRHIKL | -0.706
12 | FCCNICGALFTQKGNLLRHIKL | -0.33
13 | FWCPICGRHFTQKGNLLRHIKL | 0.106
14 | FDCSVCGHMFTQKGNLLRHIKL | 0.845
15 | FYCPICGANFTQKGNLLRHIKL | -0.127
16 | FHCNQCGAHFTQKGNLLRHIKL | -0.529

Row | Sequence | log2 fold change of degron read counts
17 | FMCPVCGALFTQKGNLLRHIKL | 0.761
18 | FMCSVCGHGFTQKGNLLRHIKL | -0.172
19 | FICNQCGRVFTQKGNLLRHIKL | -0.048
20 | FKCNQCGAQFTQKGNLLRHIKL | -0.557
21 | FDCPICGAPFTQKGNLLRHIKL | -0.062
22 | FQCSVCGHQFTQKGNLLRHIKL | -1.4
23 | FHCPICGAPFTQKGNLLRHIKL | 0.439
24 | FLCNQCGHLFTQKGNLLRHIKL | 0.637
25 | FKCPICGHKFTQKGNLLRHIKL | -0.808
26 | FFCNQCGREFTQKGNLLRHIKL | -0.861
27 | FNCEICGAGFTQKGNLLRHIKL | -2.32
28 | LYCEICGFKCTQKGNLLRHIKL | -0.281
29 | LICNQCGFSCTQKGNLLRHIKL | 0.218
30 | FACNQCGHLFTQKGNLLRHIKL | 0.0483
31 | FLCPQCGARFTQKGNLLRHIKL | -0.597
32 | FDCNICGAVFTQKGNLLRHIKL | -0.41
